Measured values: ChEMBL document CHEMBL4888484, “Replenishing the malaria drug discovery pipeline: Screening and hit evaluation of the MMV Hit Generation Library 1 (HGL1) against asexual blood stage Plasmodium falciparum ,using a nano luciferase reporter read-out” (2022)
The campaign covered roughly 150,000 compounds. About 540 (0.36%) showed an effect of 50% or more. Some of the results follow.

System: Plasmodium falciparum
Assay: Primary screen in NF54 nanoGlo assay, in single point, at 2uM, 72h; a lower Z score goes with more inhibition
Assay type: functional, Erythrocyte
Settings: timepoint 72 hour

Row | Structure (SMILES) | % Inhibition [%] | Z score
1 | Cc1cc(=O)n(Cc2ccccc2F)c2cc(OCC(=O)NCc3ccccn3)ccc12 | 5 | -0.64
2 | COc1nc2c(cc1CNC(=O)CNC(N)=O)C(=O)N(C1CCCC1)C2 | 4 | -0.63
3 | O=C1N(CC2CCCCC2)CCC[C@@]1(O)CN1CCC(CO)CC1 | -5 | 0.64
4 | C(CN1CCOCC1C1CC1)CN1CCOCC1C1CC1 (centres undefined) | -1 | 0.16
5 | CC(C)(C)NC(=O)CN1CCC(CNC(=O)c2nccnc2N)CC1 | 2 | -0.27
6 | O=C(NCc1ccc(F)cc1)N1CCC[C@@H]1CN1CCCC1 | -10 | 1.91
7 | COCCn1cnnc1[C@H](C)Nc1nc(C)nc2ccsc12 | -11 | 2.11
8 | CCN(CC)CCCC(C)NC(=O)CC(c1ccc(OCc2ccccc2)c(OC)c1)c1cn(Cc2ccccc2)c2ccccc12 (centres undefined) | 5 | -0.61
9 | CC1CN(C(=O)CCn2nnc3ccccc3c2=O)CC1N(C)C (centres undefined) | -1 | 0.1
10 | CCCCNC(=O)CN(C)C(=O)c1c(C)[nH]c(C)cc1=O | -10 | 2.03
11 | Cc1noc(CN2CCC(N3CCN(c4cc(C(F)(F)F)ccn4)CC3)CC2)n1 | -2 | 0.22
12 | c1ccc(C2CN(c3nc(N4CCOC(c5ccccc5)C4)c4ccccc4n3)CCO2)cc1 (centres undefined) | -11 | 2.03
13 | CC(NC(=O)N1CCCC(CO)C1)c1cnn(Cc2ccccc2)c1 (centres undefined) | -16 | 1.46
14 | O=C(Cn1nc2c(Oc3ccccc3)nc3ccccc3n2c1=O)N1CCN(c2ccc(F)cc2)CC1 | -6 | 0.79
15 | CC(C)=CCN1C(=O)C2(CCN(C(=O)c3cccnc3)CC2)Nc2ccccc21 | -14 | 1.94
16 | Cc1noc(-c2cccnc2N2CCN(C(c3ccccc3)c3ccccc3)CC2)n1 | 14 | -1.61
17 | Cc1cc(-c2cc(S(=O)(=O)N3CCN(C(C)C)CC3)c(C)s2)[nH]n1 | -8 | 1.79
18 | O=C(c1cccnn1)N1CC[C@H]2[C@H](CCC(=O)N2CCc2cccs2)C1 | 5 | -0.58
19 | O=C(c1coc(-c2ccccc2)n1)N1CCCc2cccc(OC(F)F)c21 | 1 | -0.12
20 | O=C1NCCC[C@@H]1Nc1nc(-c2ccncc2)nc2c1CCC2 | 7 | -0.89
21 | Cc1cccnc1CN1CCC(Oc2cncc(Cl)c2)CC1 | 1 | -0.12

Row | Structure (SMILES) | % Inhibition [%] | Z score
22 | COc1ccc(CN(C(=O)c2ccccc2C(F)(F)F)C2CCCC2)cc1OC(C)C | -9 | 1.18
23 | COc1ccc(S(=O)(=O)CCNC(=O)Cn2cc(OC)c(=O)cc2C)cc1 | -16 | 2.66
24 | Cn1c(-c2nc([C@H]3CCS(=O)(=O)C3)no2)cc2ccccc2c1=O | 6 | -0.77
25 | CC1CCN(Cc2nnnn2CC(=O)NCc2cnc(-c3ccccc3)s2)CC1 | -16 | 1.49
26 | Cc1nn(CC(=O)NCCCN(C)Cc2ccccc2)c(=O)c2c(C)n(-c3ccccc3)nc12 | -3 | 0.46
27 | CC(=O)N1CCN(Cc2ccccc2NC(=O)c2oc(CC3CC3)nc2C)CC1 | -13 | 1.66
28 | OC[C@]1(O)CCCN(Cc2ccc(-c3cccc(Cl)c3Cl)o2)CC1 | 1 | -0.25
29 | O=C(Nc1ccccc1)Nc1ccc2nc3n(c(=O)c2c1)CCCC3 | -5 | 0.59
30 | Cc1ncc(CN(C)C(=O)c2ccc3c(c2)OCO3)s1 | 6 | -1.1
31 | Cc1cc2c(cc1C)[C@H](C(=O)NC1(C(=O)O)CCC1)CO2 | 2 | -0.35
32 | CCc1ccc(C(NC(=O)C2CCCN2C(C)=O)C(C)(C)C)o1 (centres undefined) | -10 | 1.39
33 | Nc1nc(CCCNC2CCN(c3nc4ccccc4o3)CC2)cs1 | 12 | -2.48
34 | O=C(NC[C@@H](c1ccco1)N1CCCC1)Nc1ccc(Cl)cc1 | 25 | -2.96
35 | Cc1ccc(CC(=O)N[C@@H](CC2CC2)C(=O)O)s1 | 1 | -0.15
36 | Cn1c(=O)c(-c2nc(-c3cccc(F)c3)no2)c(O)c2ccc(F)cc21 | -12 | 1.52
37 | Cc1ccc(S(=O)(=O)N[C@@H](CC(=O)NCCN2CCOCC2)c2ccco2)cc1 | 17 | -1.99
38 | CCN(CC)c1ccc(C(=O)OCC(=O)N2CCCCCC2)cc1 | -5 | 0.8
39 | Cn1cccc1C(=O)N1CC[C@H](Nc2cccnc2)C1 | 2 | -0.28
40 | Cc1ccc(CNC(=O)Nc2c(C)noc2C)cc1 | -1 | 0.15
41 | Cc1cc(=O)[nH]c(CCNC2CCN(c3nc4ccccc4o3)CC2)n1 | -3 | 0.57
42 | COCCc1nc(Cn2cnc(-c3ccccc3)c2[C@H](C)c2ccccc2)no1 | -7 | 0.92

Row | Structure (SMILES) | % Inhibition [%] | Z score
43 | Cc1nc(N[C@@H](C)c2ncccc2C)cc(C2CCNCC2)n1 | -5 | 0.88
44 | CCOC[C@H]1CCN(c2cc(N(C)c3ccccc3)ncn2)C1 | -10 | 1.97
45 | Cc1ccc(OCc2cc(C(=O)N3CCN(C)C[C@@H]3C(C)C)no2)cc1C | -10 | 1.16
46 | CCn1ccc(NC(=O)N(C)Cc2ncc(Br)cn2)n1 | 1 | -0.12
47 | CCCN1CCN(Cc2nc3nc(C)cc(N4CCOCC4)n3n2)CC1 | -14 | 1.82
48 | Cc1cc(C(=O)NC[C@H](C)c2ccc(S(C)(=O)=O)cc2)cc(C)n1 | -9 | 1.78
49 | O=C(NC1CCCN(c2ccc(Cl)cc2Cl)C1)N[C@H]1[C@@H]2COC[C@@H]21 (some centres undefined) | -3 | 0.48
50 | Cc1nc2ccc(-n3nc(C(C)C)nc3[C@H]3CCC(=O)N3)cc2s1 | -10 | 2.06
51 | Cc1cc(=O)[nH]c(-n2ncc(C(=O)NCCc3ccc(F)cc3)c2C)n1 | 2 | -0.28
52 | CN(Cc1ccccc1)[C@@H]1COC2(C1)CN(C(=O)c1ccc(F)cc1F)C2 | -12 | 2.1
53 | CCc1nn(C)c(Cl)c1CN1CC[C@H]1c1ccc(F)cc1 | -8 | 1.39
54 | Cc1ncccc1CNC(=O)N[C@H]1C[C@@H]1CC(C)(C)C | -11 | 2.02
55 | Cc1c(CN2CCC[C@H](O)CC2)[nH]c2ccc(Cl)cc12 | -12 | 2.19
56 | Cc1cc(C(=O)OCC(=O)N2CCCCC2C)c2c(c1)C(C)CCN2 (centres undefined) | 4 | -0.62
57 | COc1cc(C2C(C(=O)Nc3nc4ccccc4s3)CCC(=O)N2c2ccc3c(c2)OCO3)cc(OC)c1OC (centres undefined) | -3 | 0.47
58 | CC(C)(C)OC(=O)N1CC(C(=O)Nc2ccc(Br)c(O)c2)C1 | -11 | 1.47
59 | CCCN(CC(=O)OC(C)(C)C)C(=O)c1ccc(C(=O)NC)nc1 | 7 | -0.91
60 | Cc1cc(N)n(CC(=O)N[C@H]2CC(=O)N(CC(C)(C)C)C2)n1 | -9 | 1.17
61 | CNC(=O)C[C@H]1CCN(C(=O)CCC2CCCC2)C1 | -9 | 1.64
62 | O=C(c1csc(-c2ccc(N3CCOCC3)nc2)n1)N1CCCC1 | -11 | 1.22
63 | COc1ccc(-n2nc(Cc3ccccc3)n(CC(=O)NCC(N)=O)c2=O)cc1 | 2 | -0.32

Row | Structure (SMILES) | % Inhibition [%] | Z score
64 | c1ccc(-c2ncn(Cc3csc(C4CCCCC4)n3)n2)nc1 | -22 | 4.4
65 | O=C(COCC(=O)N[C@H]1CCCc2occc21)NCc1cccnc1 | 13 | -1.88
66 | CCOCCN1CCN(c2nnc(C)c(C)c2C#N)C[C@@H]1CC | -5 | 0.44
67 | Cc1cccc([C@@H](NC(=O)C(C)(C)N2CCCC2)C2CC2)n1 | -11 | 1.41
68 | CC(C)Oc1ccc(C(=O)NCCN(C)C)cc1 | 4 | -0.54
69 | COCC[C@H]1CCCCN(Cc2cn(C(C)C)nc2C)C1 | 6 | -0.63
70 | COc1ccc(C(=O)N(CC(=O)N2CCN(c3ccc(-c4cccc(OC)c4)nn3)CC2)CC2CC2)cc1 | -16 | 1.75
71 | O=C(c1ccc(C(F)(F)F)s1)N1C[C@@H]2C[C@H](NS(=O)(=O)c3ccccc3)[C@H]1C2 | -14 | 2.31
72 | Fc1ccccc1CN[C@H]1CCCc2cn(CC(F)(F)F)nc21 | -15 | 1.65
73 | CC(Oc1cccnc1)C(=O)N1CCOC(CF)C1 (centres undefined) | -11 | 1.72
74 | CN(Cc1ccccc1)C(=O)[C@@H]1CN(S(C)(=O)=O)C[C@H]1c1ccncc1 | -9 | 1.08
75 | Cc1cc(C)cc(NC(=O)Cn2c(N3CCc4ccccc4C3)nc(C)cc2=O)c1 | -8 | 1.34
76 | Cc1cc(C)n(C(=O)C2CC2c2ccccc2)n1 (centres undefined) | -14 | 2.61
77 | Nc1ncc(Cl)cc1S(=O)(=O)N1CCN(Cc2cccs2)CC1 | -11 | 0.91
78 | Cc1nc(CC(=O)NCc2c(C)nn(C)c2C)c(C)s1 | -7 | 1.07
79 | CN(C)C(=O)[C@H]1N(C)CCCC12CCN(C(=O)COc1ccccc1)CC2 | -2 | 0.3
80 | C=CCOc1ccccc1CN(CC)Cc1cccn1-c1ncccn1 | 2 | -0.24
81 | C[C@H](Nc1nc2nonc2n2nnnc12)c1ccccc1 | 27 | -3.54
82 | Cc1ccc(Cl)cc1NS(=O)(=O)c1cc(-c2nc(C)c(C)s2)cs1 | -15 | 2.11
